Among the data in PubChem BioAssay AID1240 (Sanford-Burnham Center for Chemical Genomics, 2008) are displacement values, retold here.

Among all 50,000 compounds or so, about 800 (1.6%) showed an effect of 50% or more. Some of the results follow.

The test deals with Bcl-2-like protein 10 (Homo sapiens) (UniProt Q9HD36). The experiment in a line: TR3 peptide-Bcl-B binding displacers, biochemical primary FP assay, phenotype converters (AID 1240).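 Also: 0% = Bcl-B with tracer peptide and DMSO and 100% = tracer peptide lacking Bcl-B.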 The settings on record: GST-Bcl-B / FITC-TR3 peptide fluorescence polarization; stronger effect = higher value; compound at 3.75 mg/L. In general terms: Polarisation of emitted light reports the rotation of a fluorescent probe.
UniProt Q9HD36, sequence (Q9HD36 whole entry, looked up): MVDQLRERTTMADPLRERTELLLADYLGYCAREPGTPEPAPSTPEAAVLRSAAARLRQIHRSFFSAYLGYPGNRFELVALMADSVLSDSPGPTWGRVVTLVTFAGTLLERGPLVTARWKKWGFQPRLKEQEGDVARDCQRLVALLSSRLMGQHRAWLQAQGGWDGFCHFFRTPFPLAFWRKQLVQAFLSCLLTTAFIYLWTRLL
As to `O=C(COc1ccc(Br)cc1)Nc1ccc(Cl)cc1`, the displacement is -4%.

In the case of `O=C(NCC1CCCO1)/C(=C\c1ccco1)NC(=O)c1ccccc1` (stereo unspecified), the displacement came to 16.9%.

With `Cc1ccc(N=C2NC(=O)CS2)cc1`, the displacement was found to be 1.2%.

For `O=C(Nc1ccc([N+](=O)[O-])cn1)c1ccc(F)cc1`, the displacement was -0.2%.

Turning to `O=C(N/N=C/c1cc(Br)cc(Br)c1O)c1ccc(N2CCCC2=O)cc1`, the displacement is -0.6%.

Consider `CC1C(C(=O)N(C=O)c2ccc(Br)cc2)C2C=CC1C21CC1` (stereo unspecified), for which the displacement worked out at 11.2%.

In the case of `CCCC(=O)N1CCN(c2cc(N3CCC(C)CC3)c(F)cc2[N+](=O)[O-])CC1`, the displacement is -8.1%.

For the compound `CC(Oc1ccccc1)C(=O)NCc1cccnc1` (stereo unspecified), the displacement came out at 3.9%.

For `Cc1ccc(S(=O)(=O)C/N=C(/NC(=S)N(c2ccccc2)c2ccccc2)c2ccccc2)cc1`, the displacement is 0.8%.

Take `CC(=O)Nc1ccc(S(=O)(=O)NC(=O)C23CC4CC(CC(C4)C2)C3)cc1`: the displacement is 0.8%.

For `c1ccc(OCCSc2nc3ccccc3s2)cc1`, the displacement was -0.6%.

For `Cc1c(Cl)c(C(F)(F)F)nn1CC(=O)N1CCN(c2ccc(F)cc2)CC1`, the displacement was found to be 5.7%.

On to `Clc1cccc(CN2CCN(C3CCN(Cc4ccccc4)CC3)CC2)c1`, for which the displacement is -20.1%.

Take `CCOc1cccc(=O)c2c(C)[nH]c(C)c12`: the displacement stood at 40.5%.

As to `Cc1cc(C)cc(NC(=O)c2ccco2)c1`, the displacement is 12.3%.

As to `CCOc1cc(C(=O)Nc2ccc(C(=O)OC)cc2)cc(OCC)c1OCC`, the displacement came out at 3.3%.

Regarding `CCC(=O)Nc1nnc(COc2ccccc2)s1`, the displacement was -1.6%.

As to `COC(=O)C(=C/C=C/N(C1CCCCC1)C1CCCCC1)C(=O)OC`, the displacement worked out at 1.1%.

With `COc1ccc(/C=C2\SC(=S)N(CC(=O)Nc3ncc(Cc4cccc([N+](=O)[O-])c4)s3)C2=O)cc1OC`, the displacement was determined as 9.7%.

Take `Cc1cccc(OC(=O)Nc2ccc(Cl)cc2)c1`: the displacement worked out at 3.5%.

As to `CC(C)N(CCC#N)S(=O)(=O)c1ccc(-c2ccc([N+](=O)[O-])cc2)cc1`, the displacement was 3.9%.

For the compound `CCOC(=O)C1=C(C)OC(N)=C(C#N)C1c1ccc(OC)cc1` (stereo unspecified), the displacement was -10.8%.

On to `COCCOC(=O)C1=C(C)N(C)C(=O)NC1c1ccccc1Cl` (stereo unspecified), for which the displacement was -4.9%.

Regarding `CCOc1ccc(C(CC(=O)c2ccccc2)Nc2ccc(Cl)cc2)cc1` (stereo unspecified), the displacement amounted to 10.1%.

Regarding `Cc1ccc(S(=O)(=O)Nc2c(C)n(C)n(-c3ccccc3)c2=O)c(C)c1`, the displacement was -4.7%.

Regarding `CCCCCCOC(=O)C1=C(C)NC(=O)NC1c1ccc(F)cc1` (stereo unspecified), the displacement is -1.4%.

For the compound `COc1c(Br)cc(Br)cc1/C=N/NC(=O)CNC(=O)c1cccc(F)c1`, the displacement was 1.8%.

Regarding `O=C(Nc1sc2c(c1C(=O)Nc1ccccn1)CCCCC2)c1ccccc1`, the displacement turned out to be 95%.

For `Cc1ccc(/C=C2/C=C(c3ccccc3)OC2=O)o1`, the displacement stood at 22.9%.

As to `O=[N+]([O-])c1ccc(-c2nc3ccc(Br)cn3[n+]2[O-])cc1`, the displacement was found to be 9.3%.

For the compound `CCOC(=O)c1ccc(NC(=O)CN(CCc2ccccc2)S(=O)(=O)c2ccc(OC)cc2)cc1`, the displacement was -23.7%.

As for `O=C1NC(=O)/C(=C\c2ccc(-c3ccc(C(=O)O)cc3)o2)S1`, the displacement came out at 22.4%.

`CCOc1ccc(C(NC(=O)c2ccco2)c2ccc(OC)c(OC)c2)cc1` (stereo unspecified): the displacement was 7.2%.

Consider `O=C(Nc1ccccc1Br)NS(=O)(=O)c1ccccc1Cl`, for which the displacement turned out to be 2.3%.

Take `O=C(Nc1ccccc1C(=O)O)c1ccc2c(c1)C(=O)N(c1ccccc1-c1ccccc1)C2=O`: the displacement is 5.3%.

Consider `Cc1cccc(C)c1NC(=O)CO/N=C(\N)c1nonc1N`, for which the displacement is 12.6%.

Regarding `O=C(Nc1ccccc1C(=O)NCCc1ccccc1)c1cccnc1`, the displacement was -16.8%.

With `CCOC(=O)c1c(C)oc2cc(Br)c(OC)cc12`, the displacement was 12.6%.

Turning to `COc1ccc(CNC(=O)COc2ccc(Cl)cc2Br)cc1`, the displacement is 16.8%.

For the compound `O=C(Nc1ccc(C(=O)N2CCOCC2)cc1)Nc1cccc(Cl)c1`, the displacement came out at 16.1%.

Take `CCc1c(C)sc(NC(=O)c2cccs2)c1C(=O)OC`: the displacement amounted to 3.3%.

On to `O=C(Nc1ccc(N2CCOCC2)cc1)C1(S(=O)(=O)c2ccccc2)CC1`, for which the displacement stood at 11.7%.

In the case of `O=[N+]([O-])c1ccccc1S(=O)(=O)Nc1cccc(I)c1`, the displacement was 26%.

In the case of `O=C1Nc2ccc([N+](=O)[O-])cc2C1=Nc1ccc(-c2ccc(N=C3C(=O)Nc4ccc([N+](=O)[O-])cc43)cc2)cc1`, the displacement turned out to be 3.3%.

`CCN(CC)CCOc1c(Cl)cccc1Cl`: the displacement was 8.4%.

Turning to `O=C1CC(c2ccccc2)CC2=C1C(c1ccc(F)c(Br)c1)Nc1ccccc1N2` (stereo unspecified), the displacement worked out at 2.8%.

Regarding `CC(C)(C)c1ccc(/C=C2\SC(N3CCOCC3)=NC2=O)cc1`, the displacement was -19.4%.

Regarding `O=C(Nc1nc2ccc3ccccc3c2s1)c1ccc(Cl)cc1Cl`, the displacement is -14.6%.

In the case of `COc1ccc(-c2csc(Nc3ccc4c(c3)OCO4)n2)cc1F`, the displacement stood at 9.4%.

For `N/C(Cc1ccc(Cl)cc1)=N\OC(=O)Cc1ccc([N+](=O)[O-])cc1`, the displacement is -25.5%.

For the compound `O=C1NC(c2ccccc2)Nc2c1sc(=S)n2-c1ccccc1` (stereo unspecified), the displacement came to 12.7%.

For `CCOC(=O)CSc1nccc(N(C)C)c1C#N`, the displacement is -5.8%.

As to `CC(C)(C)C1CCc2c(sc(NC(=O)c3ccccc3)c2C(N)=O)C1` (stereo unspecified), the displacement is 37%.

With `COc1ccc(-c2cn3ccc4ccccc4c3n2)cc1OC`, the displacement was found to be 0%.

On to `O=C1OC(c2ccc(Br)cc2)=C/C1=C\C=C\c1ccccc1`, for which the displacement was -8.3%.

Turning to `c1ccc(C(Sc2nc3ccccc3[nH]2)c2ccccc2)cc1`, the displacement is -9.9%.

Take `COc1cc(C=O)c(Br)cc1OCc1ccccc1Cl`: the displacement was -5.8%.

Consider `O=S(=O)(Cc1ccccc1)NCCOc1ccccc1Cl`, for which the displacement was determined as 11.5%.

Take `COc1ccc(C(=O)c2ccccc2)c(OC)c1`: the displacement is 11.9%.

`O=C(Nc1nccs1)c1ccc2c(c1)C(=O)N(c1ccc(Cl)cc1)C2=O`: the displacement stood at 5.1%.

For `O=C(COc1ccc(Br)cc1)Nc1ccc(Cc2ccncc2)cc1`, the displacement was 13.8%.

With `CCC(Sc1nc2ccccc2[nH]1)C(=O)Nc1cccc2ccccc12` (stereo unspecified), the displacement worked out at 2.1%.

For the compound `CCNC(=S)Nc1sc2c(c1C(=O)OCC)CCC2`, the displacement was -10.6%.

With `COc1ccc(OC)c(/C=N/n2cnnc2)c1`, the displacement worked out at 11.1%.

As to `Cc1cc2nc(-c3cc(NC(=O)/C=C/c4ccccc4)ccc3O)oc2cc1C`, the displacement was found to be 21.9%.

`O=C(NCCc1ccccc1)C1C(c2ccccc2)=C1c1ccccc1`: the displacement is -7.7%.

For the compound `O=C(c1ccccc1[N+](=O)[O-])N(Cc1ccccc1)Cc1ccccc1`, the displacement came out at 0.6%.

`COc1ccc(/C=N/N(C)C2=NS(=O)(=O)c3cc([N+](=O)[O-])ccc32)cc1Br`: the displacement is -17.4%.

On to `CCN(CC)c1ccc(C=Nn2cnnc2)cc1`, for which the displacement was -8.4%.

Turning to `CCOP(=O)(OCC)C(Nc1ccccc1)c1cccc([N+](=O)[O-])c1` (stereo unspecified), the displacement is 4.4%.

For the compound `Cc1ccccc1C(=O)Nc1sc2c(c1C(=O)O)CCC2`, the displacement was -4.2%.
